# Laboratory results as given in the supplement of paper PMC12217912.
# Some of the results follow. Sequences were assembled here from the parent chain. Inactive controls read about 0.05.
# B1: TEV protease; numbered along this chain (parent)
# chain: MGESLFKGPRDYNPISSSICHLTNESDGHTTSLYGIGFGPFIITNKHLFRRNNGTLVVQSLHGVFKVKDTTTLQQHLVDGRDMIIIRMPKDFPPFPQKLKFREPQREERICLVTTNFQTKSMSSMVSDTSCTFPSGDGIFWKHWIQTKDGQCGSPLVSTRDGFIVGIHSASNFTNTNNYFTSVPKNFMELLTNQEAQQWVSGWRLNADSVLWGGHKVFMVKPEEPFQPVKEATQL
# Variants of: B1
# Test: raw area under fraction-flipped curve 0-4 h after induction (AUC4h, not background-subtracted), DNA-recorder readout of cleavage of the substrate (dimensionless); higher = more cleavage of the substrate by the protease variant
# Conditions: temperature: 34 °C; time window: 0-4 h after rhamnose induction
# 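Note: Bxb1 expression induced with 0.2% (w/v) L-rhamnose at OD600 near 0.5, cultures sampled hourly, flipped fraction per protease–substrate barcode pair counted by paired-end Illumina sequencing.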
Variant,area with substrate ENLYEQS,area with substrate ENLYGQS,area with substrate ENLYIQS,area with substrate ENLYKQS,area with substrate ENLYLQS,area with substrate ENLYNQS,area with substrate ENLYRQS,area with substrate ENLYSQS,area with substrate ENLYYQS,area with substrate ENLYHQS,area with substrate ENLYMQS,area with substrate ENLYTQS,area with substrate ENLYWQS,area with substrate ENLYPQS,area with substrate ENLYQQS,area with substrate ENLYVQS
Q74L,0.0622,0.0747,0.119,0.0634,0.0852,0.057,0.0571,0.0708,0.072,,,,,,,
W203Q,0.0653,0.0703,,,,0.0675,,0.0548,,0.0634,0.0621,0.0579,0.0538,,,
T174M,0.0728,0.063,,,,0.095,0.0635,,0.0738,0.0659,0.0843,,,0.0748,0.0675,0.0513
H62P,0.0611,0.0682,,0.0491,,,,,,0.0622,0.0728,,0.0836,,,0.0799
H143Q,0.0612,0.0455,0.0779,0.0597,,0.0553,,0.0537,0.0516,0.0572,0.0415,0.0537,,,0.0433,0.0595
L205C,0.0737,,,0.0663,,,0.0619,,0.0641,,0.0549,0.0836,0.0443,0.0618,,0.0993
E223P,0.0645,0.0686,0.129,0.0579,,0.0651,,,0.0791,,0.0312,0.0767,0.066,,0.0671,0.11
Q146G,0.0837,,0.138,,,0.0598,0.0792,0.0512,,0.062,0.0986,,0.0899,0.08,0.0694,0.121
F226P,0.0711,,0.102,,0.0834,0.0623,,0.1,0.072,0.0516,,0.0793,0.074,,0.0544,0.125
I167Q,0.0558,0.0517,,0.0942,0.129,,,0.0659,,0.0474,0.0674,,0.063,,,0.0937
W199K,0.0505,0.0586,,0.0691,,0.0572,,0.0712,,0.0606,,,0.0778,,,
D69A,0.0661,0.0412,0.0667,0.0564,,0.0612,,,,,0.0633,,,0.0691,,
E107T,0.0774,0.0716,0.162,0.0538,,,0.0929,,,0.051,0.116,0.0794,0.0577,0.0632,,
G153D,0.0516,0.0524,,0.0509,,0.0303,0.0536,,,0.0335,0.073,,,0.0618,,
L5I,0.0953,,,,0.0975,0.0769,,,,,,,,0.069,,
L156P,0.0587,0.0499,0.0527,0.0553,,0.058,0.0507,0.0571,,0.0527,0.0583,0.0765,0.0483,,0.0614,0.0539
R109M,0.0552,0.0673,,,,,,0.0619,,0.0709,0.08,,,,,
V157T,0.0651,0.0666,,0.0552,,,0.0599,,,0.0643,,,0.0732,0.0501,,0.12
P94H,0.0645,0.067,,,,0.0766,,0.0684,,0.069,0.0649,,,0.0749,,0.01
